The values that follow come from PubChem BioAssay AID2202238 (Ras Initiative Chemistry Research Team, Frederick National …, 2025).

The target in the experiment is GTPase KRas (Homo sapiens) (UniProt P01116). The experiment in a line: Covalent labelling of cysteine mutants by fragments, read by mass spectrometry (AID 2202238). On the set-up: protein at 5 µM with 500 µM competing thiol for 1.5 h. Conditions: KRAS G12D cysteine mutants, disulfide tethering, MALDI-TOF labeling, stronger effect = higher value, fragment at 500 µM.
UniProt P01116, sequence (P01116 whole entry, looked up, the tested form may be a part): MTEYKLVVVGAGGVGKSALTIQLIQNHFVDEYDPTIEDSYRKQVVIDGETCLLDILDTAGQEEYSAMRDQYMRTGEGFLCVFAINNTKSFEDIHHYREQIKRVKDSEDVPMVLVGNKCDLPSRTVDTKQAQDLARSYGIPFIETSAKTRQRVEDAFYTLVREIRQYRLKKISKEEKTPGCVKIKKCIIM
Setting [1] is: measured here: G75C mutant labeling.
Setting [2] is: measured here: H94C mutant labeling.
Setting [3] is: measured here: I36C mutant labeling.
Where [4] appears, read: measured here: L120C mutant labeling.
Setting [5] is: measured here: M67C mutant labeling.
[6] abbreviates: measured here: M72C mutant labeling.
The mark [7] stands for this setting: measured here: N86C mutant labeling.
[8] abbreviates: measured here: P121C mutant labeling.
Setting [9] is: measured here: S122C mutant labeling.
Where [10] appears, read: measured here: S136C mutant labeling.
Setting [11] is: measured here: G60C mutant labeling.
Where [12] appears, read: measured here: N26C mutant labeling.

The other results are listed elsewhere or left out. Shown are side measurements of this screen, not its main read-out; they come without a call.

With `Cc1nn(Cc2ccccc2)c2ncc(NC(=O)CCS)cc12`, the percent labeling reads like this: under setting [1], 10.7%; under setting [2], 12%; under setting [3], 14.5%; under setting [4], 13.1%; under setting [5], 28.9%; under setting [6], 28.1%. In addition, the percent labeling runs as follows: under setting [7], 9.6%; under setting [8], 11.5%; under setting [9], 9.5%; under setting [10], 26.7%.

As to `CNC(=O)Cn1ccc(NC(=O)CCS)n1`, the percent labeling runs as follows: under setting [1], 15.1%; under setting [2], 23.2%; under setting [3], 28.2%; under setting [4], 29.4%; under setting [5], 24.6%; under setting [6], 17.6%. Also, the percent labeling reads like this: under setting [7], 27%; under setting [8], 25%; under setting [9], 34.3%; under setting [10], 38.7%.

In the case of `CN(C(=O)CCS)C1CCN(c2ccccc2)CC1`, the percent labeling runs as follows: under setting [1], 12.5%; under setting [2], 35.3%; under setting [3], 31.2%; under setting [4], 28.3%; under setting [5], 39.5%; under setting [6], 25.4%. In addition, the percent labeling came out at 19.1% under setting [7], 31.3% under setting [8], 30% under setting [9] and 53.2% under setting [10].

`COc1cccc(C2C(c3ccccc3)CCN2C(=O)CCS)c1` (stereo unspecified): the percent labeling came out at 19.7% under setting [1]; 24.9% under setting [2]; 17.2% under setting [3]; 16.3% under setting [4]; 23% under setting [5]; 24.3% under setting [6]. Besides, the percent labeling was 19.4% under setting [7], 17.9% under setting [8], 9.6% under setting [9] and 56.8% under setting [10].

On to `O=C(NCCS)c1ccnn1CCC(F)(F)F`, for which the percent labeling worked out at 34.1% under setting [11]; 28.2% under setting [1]; 41.9% under setting [2]; 25.7% under setting [3]; 34.7% under setting [4]; 28.9% under setting [5]. The percent labeling reads like this: under setting [6], 40.1%; under setting [12], 37.5%; under setting [7], 28.8%; under setting [8], 29.3%; under setting [9], 30.6%; under setting [10], 46.1%.

In the case of `O=C(NCCS)C1(c2ccc(Cl)cc2)CCCC1`, the percent labeling by setting is: under setting [11], 50.4%; under setting [1], 17%; under setting [2], 21.5%; under setting [3], 13.5%; under setting [4], 44.7%; under setting [5], 15.5%. Moreover, the percent labeling came to 30% under setting [6]; 24.4% under setting [12]; 12.7% under setting [7]; 16.9% under setting [8]; 8.2% under setting [9]; 22% under setting [10].

Consider `CN(C(=O)C1CCCN(C(=O)CCS)C1)c1ccccn1` (stereo unspecified), for which the percent labeling reads like this: under setting [1], 10.4%; under setting [2], 33.1%; under setting [3], 32.2%; under setting [4], 22.8%; under setting [5], 35.8%; under setting [6], 13%. In addition, the percent labeling was found to be 21.9% under setting [7], 28.2% under setting [8], 32.4% under setting [9] and 58.7% under setting [10].

Turning to `O=C(CCS)NCc1n[nH]c(=O)n1C1CC1`, the percent labeling under setting [1] was determined as 12%; the percent labeling under setting [2] was found to be 24.4%; the percent labeling under setting [3] came out at 33.2%; the percent labeling under setting [4] turned out to be 35.3%; the percent labeling under setting [5] came out at 29.3%; the percent labeling under setting [6] came to 17.3%. Moreover, the percent labeling by setting is: under setting [7], 24.6%; under setting [8], 38.8%; under setting [9], 35.4%; under setting [10], 49.7%.

In the case of `Cc1cnn(-c2ccc(C(=O)NCCS)cc2)c1`, the percent labeling under setting [11] stood at 6.2%; the percent labeling under setting [1] was 6.7%; the percent labeling under setting [2] turned out to be 7.6%; the percent labeling under setting [3] came to 5%; the percent labeling under setting [4] was 10%; the percent labeling under setting [5] came out at 5.7%. Besides, the percent labeling under setting [6] was found to be 36.1%; the percent labeling under setting [12] came to 22.3%; the percent labeling under setting [7] worked out at 8.6%; the percent labeling under setting [8] was 7.2%; the percent labeling under setting [9] is 4.8%; the percent labeling under setting [10] stood at 13.8%.

`O=C(CCS)Nc1cccc(-n2nn[nH]c2=O)c1`: the percent labeling under setting [1] came out at 13%; the percent labeling under setting [2] was found to be 25.5%; the percent labeling under setting [3] was determined as 21.3%; the percent labeling under setting [4] turned out to be 28.9%; the percent labeling under setting [5] was found to be 19%; the percent labeling under setting [6] amounted to 19.6%. The percent labeling amounted to 28.9% under setting [7], 28.6% under setting [8], 34.3% under setting [9] and 38.5% under setting [10].

`O=C(CCS)NCCOc1ccc(Cl)c(Cl)c1`: the percent labeling amounted to 13% under setting [1]; 38.8% under setting [2]; 29.5% under setting [3]; 20.5% under setting [4]; 22.4% under setting [5]; 43.8% under setting [6]. The percent labeling reads like this: under setting [7], 22.5%; under setting [8], 24%; under setting [9], 15.6%; under setting [10], 29.5%.

In the case of `O=C(CCS)Nc1cnn(-c2ncccc2Cl)c1`, the percent labeling amounted to 14.3% under setting [1]; 38% under setting [2]; 39.6% under setting [3]; 42.9% under setting [4]; 42.1% under setting [5]; 46.2% under setting [6]. Further, the percent labeling runs as follows: under setting [7], 31.8%; under setting [8], 34.3%; under setting [9], 36.2%; under setting [10], 57.9%.

In the case of `O=C(NCCS)c1sccc1-n1ccnn1`, the percent labeling was 37.7% under setting [11]; 23.1% under setting [1]; 40.4% under setting [2]; 28.7% under setting [3]; 43.9% under setting [4]; 34.4% under setting [5]. Further, the percent labeling reads like this: under setting [6], 39.8%; under setting [12], 41.7%; under setting [7], 32.4%; under setting [8], 36.1%; under setting [9], 38.1%; under setting [10], 45.2%.

Turning to `Cc1c(NC(=O)CCS)c(=O)n(C2CCCCC2)n1C`, the percent labeling runs as follows: under setting [1], 7.8%; under setting [2], 28.4%; under setting [3], 32.8%; under setting [4], 30.1%; under setting [5], 34.4%; under setting [6], 15%. Moreover, the percent labeling reads like this: under setting [7], 23.9%; under setting [8], 29.6%; under setting [9], 27.4%; under setting [10], 50.1%.

In the case of `CCC1(C(=O)NCCS)CCN(C(=O)c2ccccc2)CC1`, the percent labeling worked out at 32.9% under setting [11]; 12.4% under setting [1]; 33.4% under setting [2]; 24.5% under setting [3]; 35.2% under setting [4]; 62.3% under setting [5]. The percent labeling is 22.8% under setting [6]; 34.4% under setting [12]; 24.9% under setting [7]; 34.9% under setting [8]; 32.6% under setting [9]; 48.6% under setting [10].

In turn, `O=C(CCS)NC(Cn1ccnc1)c1ccccc1` (stereo unspecified) returned a percent labeling under setting [1] of 15.8%; a percent labeling under setting [2] of 32.4%; a percent labeling under setting [3] of 44.1%; a percent labeling under setting [4] of 33.1%; a percent labeling under setting [5] of 42.2%; a percent labeling under setting [6] of 21.7%. The percent labeling by setting is: under setting [7], 17%; under setting [8], 35.4%; under setting [9], 34.2%; under setting [10], 64.4%.

For the molecule `Cc1nc(N2CCOCC2)sc1CN(CC1CN(C)CCO1)C(=O)CCS` (stereo unspecified), the percent labeling is, setting by setting: under setting [1], 11.8%; under setting [2], 22%; under setting [3], 19.1%; under setting [4], 17.1%; under setting [5], 40.5%; under setting [6], 14.2%. Also, the percent labeling reads like this: under setting [7], 18.7%; under setting [8], 21.1%; under setting [9], 20.5%; under setting [10], 41.5%.

Turning to `O=C(CCS)NCCCN1C(=O)NC2(CCC2)C1=O`, the percent labeling was determined as 9.8% under setting [1]; 35.1% under setting [2]; 41.2% under setting [3]; 38.3% under setting [4]; 41.8% under setting [5]; 28.4% under setting [6]. For the same molecule, the percent labeling under setting [7] was 37%, the percent labeling under setting [8] was 38.5%, the percent labeling under setting [9] turned out to be 45.4% and the percent labeling under setting [10] was determined as 56.3%.

Take `Cn1c(CNC(=O)CCS)nnc1C1CC1`: the percent labeling runs as follows: under setting [1], 0%; under setting [2], 15.9%; under setting [3], 29.8%; under setting [4], 23%; under setting [5], 25.1%; under setting [6], 12.6%. This molecule gave a percent labeling under setting [7] of 13.2%, a percent labeling under setting [8] of 25.2%, a percent labeling under setting [9] of 24.9% and a percent labeling under setting [10] of 40.2%.

Turning to `O=C(CCS)N1CCC2(CC1)CC2c1nc(-c2cccc(Cl)c2)no1` (stereo unspecified), the percent labeling under setting [1] came out at 13%; the percent labeling under setting [2] is 11.8%; the percent labeling under setting [3] was determined as 23.2%; the percent labeling under setting [4] was 8.1%; the percent labeling under setting [5] was 9.4%; the percent labeling under setting [6] amounted to 23.3%. Also, the percent labeling reads like this: under setting [7], 14.3%; under setting [8], 12.8%; under setting [9], 5%; under setting [10], 19.6%.

On to `O=C(Cc1cnn(-c2ccccc2)c1)NCCS`, for which the percent labeling by setting is: under setting [11], 22.1%; under setting [1], 13.4%; under setting [2], 18.5%; under setting [3], 13.5%; under setting [4], 19.6%; under setting [5], 24.4%. Also, the percent labeling was 26.1% under setting [6]; 29.3% under setting [12]; 13.2% under setting [7]; 16.6% under setting [8]; 16.4% under setting [9]; 17.6% under setting [10].

Turning to `CCC(C)C(NC(=O)Nc1cc(C)ccc1C)C(=O)NCCS` (stereo unspecified), the percent labeling stood at 10% under setting [11]; 0% under setting [1]; 6.3% under setting [2]; 5.6% under setting [3]; 4.4% under setting [4]; 5.8% under setting [5]. Moreover, the percent labeling is, setting by setting: under setting [6], 5.9%; under setting [12], 9.8%; under setting [7], 4.7%; under setting [8], 5.5%; under setting [9], 2.5%; under setting [10], 8%.

As for `CN(CC(=O)NCCS)c1ccc(C#N)cc1F`, the percent labeling was 43.8% under setting [11]; 18.3% under setting [1]; 36.6% under setting [2]; 27.5% under setting [3]; 39% under setting [4]; 31.5% under setting [5]. In addition, the percent labeling is, setting by setting: under setting [6], 44.8%; under setting [12], 42.8%; under setting [7], 24.6%; under setting [8], 31.7%; under setting [9], 29.1%; under setting [10], 41.6%.

On to `O=C(CCS)Nc1ccc2c(n1)OCCO2`, for which the percent labeling was found to be 28.6% under setting [1]; 39.3% under setting [2]; 36.1% under setting [3]; 43.2% under setting [4]; 31.6% under setting [5]; 42.6% under setting [6]. The molecule also showed a percent labeling under setting [7] of 35.1%, a percent labeling under setting [8] of 34.9%, a percent labeling under setting [9] of 32% and a percent labeling under setting [10] of 50.2%.
